{"source": "the supplement of paper PMC11417369", "note": "± gives the standard deviation of the averaged measurements. This is one part of the list.", "data": [{"tested_on": "PfAP2-EXP AP2 domain (GST-tagged)", "assay": "gcPBM binding intensity (ln(normalized median fluorescence intensity)); higher = stronger DNA binding", "summary_of_the_method": "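In this array assay, P. falciparum DNA-binding domains with a GST tag, expressed in E. coli, were applied for 1 h to primer-extended double-stranded 36-bp intergenic genomic probes and negative controls on an Agilent 4 × 180k array. Bound protein was visualised with Alexa488 anti-GST antibody at 488 nm. Binding intensity is the highest Masliner-normalised natural-log median intensity across replicate spots of either probe orientation.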", "values": [{"sequence": "AAAAGGAAGATATATACACACATACAAATATTTATA [CACACA_site7093]", "gcPBM binding intensity (ln)": "8.74 ± 0.4"}, {"sequence": "TATCACCCACCATGAAGTACATATTACCATTTGATG [XGTACX_site845]", "gcPBM binding intensity (ln)": "8.78 ± 0.71"}, {"sequence": "ATAAATAAATAAAAGCGTACATATATATAAAATATA [XGTACX_site8107]", "gcPBM binding intensity (ln)": "8.63 ± 0.27"}, {"sequence": "TTATACTAAATGAACACACACACATATATATATATA [CACACA_site99]", "gcPBM binding intensity (ln)": "10 ± 0.5"}, {"sequence": "AATTAAATGTTTCTAAGATATACGACCAATGTATTT [CACACA_negctrl_site1694]", "gcPBM binding intensity (ln)": "8.24 ± 0.49"}, {"sequence": "AATTAATGGGTACATACACACATATATACATACATA [CACACA_site742]", "gcPBM binding intensity (ln)": "8.44 ± 0.41"}, {"sequence": "CATCAATGCTAATTATGTACTTACATAAATAACCCT [XGTACX_site968]", "gcPBM binding intensity (ln)": "8.44 ± 0.31"}, {"sequence": "ATACCTAAAAAATATACACACATATATATAAATATA [CACACA_site2580]", "gcPBM binding intensity (ln)": "8.29 ± 0.41"}, {"sequence": "TGTATTATCTCTTATGAACACACATTTTTATTTTCA [CACACA_site9107]", "gcPBM binding intensity (ln)": "8.66 ± 0.29"}, {"sequence": "ATGTTAATTAATGAGGTGCATTGAATATTTCAATAA", "gcPBM binding intensity (ln)": "8.63 ± 0.042"}, {"sequence": "AGAAGAAAACAAAACACACACATATATCTTAATATA [CACACA_site2231]", "gcPBM binding intensity (ln)": "8.64 ± 0.54"}, {"sequence": "AAAAAAAAAAACTTTGCATGTAATAATAAAAAAAAA [TGCATGCA_site81]", "gcPBM binding intensity (ln)": "8.8 ± 0.26"}, {"sequence": "TGGTGAAAAATATAAATATAAATAAATATATATATA [CACACA_negctrl_site1725]", "gcPBM binding intensity (ln)": "9.62 ± 0.16"}, {"sequence": "ATGATCTGTTTGTTTGTGCACATATATATATATTAA", "gcPBM binding intensity (ln)": "9.37 ± 0.23"}, {"sequence": "AAATAAATTGAAGATACATGCATATTTTTTTTTTAT [TGCATGCA_site686]", "gcPBM binding intensity (ln)": "8.41 ± 0.35"}, {"sequence": "GAATATTTATGATGAACTATTAATTAATTTTACATA [GTGCAC_negctrl_site353]", "gcPBM binding intensity (ln)": "8.09 ± 0.39"}, {"sequence": "TATATATTACATAAAACACACAAAAAAAAAATTAAA [CACACA_site3882]", "gcPBM binding intensity (ln)": "8.51 ± 0.62"}, {"sequence": "TTTATATTTTTTTTTGCACACTTTAAAAAAATATAT [CACACA_site1146]", "gcPBM binding intensity (ln)": "8.89 ± 0.24"}, {"sequence": "ATGTAGAGTAATAGTTGTACAAGGTGTATATCTCAT [XGTACX_site6370]", "gcPBM binding intensity (ln)": "9.03 ± 0.46"}, {"sequence": "ACATTATATTTGGACTGTACTAATATATTGTTATAT [XGTACX_site5573]", "gcPBM binding intensity (ln)": "8.47 ± 0.32"}, {"sequence": "ATATATATATATATATGTACATATTGTATCTTATAC [XGTACX_site5466]", "gcPBM binding intensity (ln)": "10.2 ± 0.4"}, {"sequence": "TATACATATATATATTGTACATATTATATATATATA [XGTACX_site3286]", "gcPBM binding intensity (ln)": "9.655 ± 0.064"}, {"sequence": "TATAAATACGAACACACACACCTTATAATTACTACT [CACACA_site7827]", "gcPBM binding intensity (ln)": "8.71 ± 0.69"}, {"sequence": "TTATATTTAGTATATGCACACTTTATGTTTGTTATT [CACACA_site5163]", "gcPBM binding intensity (ln)": "8.71 ± 0.28"}, {"sequence": "AAGAAAGGTTAAACATGTACATAAATATTTTACATA [XGTACX_site5024]", "gcPBM binding intensity (ln)": "8.5 ± 0.099"}, {"sequence": "AAAAACCATTGGCACACACACATAATATATAATATA [CACACA_site4903]", "gcPBM binding intensity (ln)": "8.66 ± 0.61"}, {"sequence": "TCATTGAAAATTGTTGCACACATAATAATTAAATAT [CACACA_site8554]", "gcPBM binding intensity (ln)": 8.61}, {"sequence": "ACACATATGTCTTCATGTACATAATATATAAATCTT [XGTACX_site3438]", "gcPBM binding intensity (ln)": "8.87 ± 0.46"}, {"sequence": "CATAAATCAGCCATAACACACATACATATATACATA [CACACA_site8025]", "gcPBM binding intensity (ln)": "8.52 ± 0.45"}, {"sequence": "TATCTTTTTATTTTTTATTTTTTTTTTATAATTTAC [XGTACX_negctrl_site414]", "gcPBM binding intensity (ln)": "8.53 ± 0.45"}, {"sequence": "TAAAGGTAGATATATTGTACATACACACCTATATAA [XGTACX_site6865]", "gcPBM binding intensity (ln)": "8.33 ± 0.3"}, {"sequence": "TATATATATACAGTTGCATGTTGTGTTTAAAATTTT [TGCATGCA_site816]", "gcPBM binding intensity (ln)": "9.575 ± 0.035"}, {"sequence": "TGTTAAAAAATGGATGCACACATTAAATAAAAAGTA [CACACA_site1660]", "gcPBM binding intensity (ln)": "8.79 ± 0.28"}, {"sequence": "TCTTGTTTATCAACAGCACACACAACAACAACAACA [CACACA_site8046]", "gcPBM binding intensity (ln)": "8.96 ± 0.35"}, {"sequence": "TTAATTAAAACGAATACACACATAAATATGTAAAAG [CACACA_site6707]", "gcPBM binding intensity (ln)": "8.63 ± 0.3"}, {"sequence": "ATATGTATAAGTATGTATATTTATTTATACTTATGT [GTGCAC_negctrl_site221]", "gcPBM binding intensity (ln)": "8.2 ± 0.37"}, {"sequence": "TATATATATATATAATGTACTTATATTTTTTTGAGG [XGTACX_site2638]", "gcPBM binding intensity (ln)": "10.1 ± 0.21"}, {"sequence": "AAAAAAAAAAAAAAAAGTACATATATATATTTATAT [XGTACX_site5893]", "gcPBM binding intensity (ln)": "8.45 ± 0.085"}, {"sequence": "TTATATTTATAAAATTGTATACCCCTTCTAACTTTC [CACACA_negctrl_site250]", "gcPBM binding intensity (ln)": "8.51 ± 0.44"}, {"sequence": "ATTGTGCTCATCAGCACACACAACATCATGTAATAA [CACACA_site1863]", "gcPBM binding intensity (ln)": "8.6 ± 0.28"}, {"sequence": "TATATATATGGTTTAACACACGAGATAAAAGTATAT [CACACA_site2867]", "gcPBM binding intensity (ln)": "8.68 ± 0.24"}, {"sequence": "TTCTATTCACATTTTACACACGTCCATCGCATTTTA [CACACA_site3453]", "gcPBM binding intensity (ln)": "9.13 ± 0.47"}, {"sequence": "TTTTAAATTTAATTTACACACTTTTCATAGCATTGA [CACACA_site3794]", "gcPBM binding intensity (ln)": "8.39 ± 0.38"}, {"sequence": "TATATGGTATGTATTACACACATATCACATATAGAT [CACACA_site7426]", "gcPBM binding intensity (ln)": "8.28 ± 0.32"}, {"sequence": "AGCCATATCTTTTTTGCACACACTACAATAAAACAA [CACACA_site1650]", "gcPBM binding intensity (ln)": "8.8 ± 0.39"}, {"sequence": "AATGTAAAAGTAAACACACACATATATTTATACATA [CACACA_site7218]", "gcPBM binding intensity (ln)": "8.71 ± 0.32"}, {"sequence": "CATATGGCAATAATTACATGCAAAAAAAAAAAAAAA [TGCATGCA_site578]", "gcPBM binding intensity (ln)": "8.59 ± 0.34"}, {"sequence": "ACATTTAATGTTATATGTACATAATATTATAAGTAT [XGTACX_site1393]", "gcPBM binding intensity (ln)": "8.93 ± 0.41"}, {"sequence": "AAAAAAAAGAAAAACACACACATATATATATATAAT [CACACA_site4707]", "gcPBM binding intensity (ln)": "8.61 ± 0.52"}, {"sequence": "GTAAATCGACACATACGTACATACATTTATATATAT [XGTACX_site3143]", "gcPBM binding intensity (ln)": "8.93 ± 0.33"}, {"sequence": "ACAGACGTTCAAAGGTGTACGCAAAATGAATAATAT [XGTACX_site7565]", "gcPBM binding intensity (ln)": "8.93 ± 0.32"}, {"sequence": "TTCTTATTTAATGTATCACACACGAGAATAAAAAAT [CACACA_site8992]", "gcPBM binding intensity (ln)": "8.64 ± 0.4"}, {"sequence": "TTTCATGACAATGTTTGTACATAATAAAATATATTT [XGTACX_site7039]", "gcPBM binding intensity (ln)": "8.52 ± 0.29"}, {"sequence": "TAAACAGACATATAAACACACATACATACATACATA [CACACA_site7215]", "gcPBM binding intensity (ln)": "8.71 ± 0.47"}, {"sequence": "TTAAAAAGATGTCACTGTACATAAAACATAAAATAT [XGTACX_site2886]", "gcPBM binding intensity (ln)": "8.82 ± 0.4"}, {"sequence": "AAAAAAAAAAAAAAAACACACATAAAACTATAATAA [CACACA_site7758]", "gcPBM binding intensity (ln)": "8.53 ± 0.34"}, {"sequence": "GAAGAGACTTAGAAAACACACATACATAAGATAATT [CACACA_site5333]", "gcPBM binding intensity (ln)": "8.71 ± 0.45"}]}]}
